# From the supplement of paper PMC8728848
# This is one part of the list.
# What was measured:
# Experiment in all cases: glycan array binding signal (z-score within array); higher = stronger binding
# Conditions in all cases: glycan notation: IUPAC condensed, linker removed
# [1] = target: Fuc(a1-2)[GalNAc(a1-3)]Gal(b1-3)GlcNAc(b1-3)GalNAc
# Method in brief: (§1)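 From the Consortium for Functional Glycomics database, 3228 arrays were curated, keeping only those whose protein sequence was available. Binding is given as a within-array Z-score averaged across arrays sharing a protein sequence and across linkers. Negative Z-scores can be read as non-binding.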
# [2] = target: Fuc(a1-2)[GalNAc(a1-3)]Gal(b1-3)GlcNAc(b1-6)GalNAc
# Method in brief: as §1
# [3] = target: Fuc(a1-2)[GalNAc(a1-3)]Gal(b1-4)Glc
# Method in brief: as §1
# [4] = target: Fuc(a1-2)[GalNAc(a1-3)]Gal(b1-4)GlcNAc
# Method in brief: as §1
# [5] = target: Fuc(a1-2)[GalNAc(a1-3)]Gal(b1-4)GlcNAc(b1-2)Man
# Method in brief: as §1
# [6] = target: Fuc(a1-2)[GalNAc(a1-3)]Gal(b1-4)GlcNAc(b1-2)Man(a1-3)[Fuc(a1-2)[GalNAc(a1-3)]Gal(b1-4)GlcNAc(b1-2)Man(a1-6)]Man(b1-4)GlcNAc(b1-4)GlcNAc
# Method in brief: as §1
# [7] = target: Fuc(a1-2)[GalNAc(a1-3)]Gal(b1-4)GlcNAc(b1-2)Man(a1-3)[Fuc(a1-2)[GalNAc(a1-3)]Gal(b1-4)GlcNAc(b1-2)Man(a1-6)]Man(b1-4)GlcNAc(b1-4)[Fuc(a1-6)]GlcNAc
# Method in brief: as §1
# [8] = target: Fuc(a1-2)[GalNAc(a1-3)]Gal(b1-4)GlcNAc(b1-3)Gal(b1-4)GlcNAc
# Method in brief: as §1
# [9] = target: Fuc(a1-2)[GalNAc(a1-3)]Gal(b1-4)GlcNAc(b1-3)Gal(b1-4)GlcNAc(b1-3)Gal(b1-4)GlcNAc
# Method in brief: as §1
# [10] = target: Fuc(a1-2)[GalNAc(a1-3)]Gal(b1-4)GlcNAc(b1-3)GalNAc
# Method in brief: as §1
# [11] = target: Fuc(a1-2)[GalNAc(a1-3)]Gal(b1-4)GlcNAc(b1-3)[Fuc(a1-2)[GalNAc(a1-3)]Gal(b1-4)GlcNAc(b1-6)]GalNAc
# Method in brief: as §1
# [12] = target: Fuc(a1-2)[GalNAc(a1-3)]Gal(b1-4)GlcNAc(b1-6)GalNAc
# Method in brief: as §1
# [13] = target: Fuc(a1-2)[GalNAc(a1-3)]Gal(b1-4)[Fuc(a1-3)]GlcNAc
# Method in brief: as §1
# [14] = target: Fuc(a1-2)[GalNAc(a1-3)]Gal(b1-4)[Fuc(a1-3)]GlcNAc(b1-3)GalNAc
# Method in brief: as §1
# [15] = target: Fuc(a1-2)[GalNAc(a1-4)]Gal(b1-4)GlcNAc
# Method in brief: as §1
# [16] = target: Fuc(a1-2)[GalNAc(b1-3)]Gal
# Method in brief: as §1
# [17] = target: Fuc(a1-3)GlcNAc
# Method in brief: as §1
# [18] = target: Fuc(a1-3)[Gal(b1-4)]Glc6S
# Method in brief: as §1
# [19] = target: Fuc(a1-3)[Gal(b1-4)]GlcNAc
# Method in brief: as §1
# [20] = target: Fuc(a1-3)[Gal(b1-4)]GlcNAc(b1-2)Man
# Method in brief: as §1
# [21] = target: Fuc(a1-3)[Gal(b1-4)]GlcNAc(b1-2)Man(a1-3)[Fuc(a1-3)[Gal(b1-4)]GlcNAc(b1-2)Man(a1-6)]Man(b1-4)GlcNAc(b1-4)GlcNAc
# Method in brief: as §1
# [22] = target: Fuc(a1-3)[Gal(b1-4)]GlcNAc(b1-2)Man(a1-3)[Fuc(a1-3)[Gal(b1-4)]GlcNAc(b1-2)Man(a1-6)]Man(b1-4)GlcNAc(b1-4)[Fuc(a1-6)]GlcNAc
# Method in brief: as §1
# [23] = target: Fuc(a1-3)[Gal(b1-4)]GlcNAc(b1-3)Gal(b1-3)[Fuc(a1-4)]GlcNAc
# Method in brief: as §1
# [24] = target: Fuc(a1-3)[Gal(b1-4)]GlcNAc(b1-3)Gal(b1-4)[Fuc(a1-3)]GlcNAc
# Method in brief: as §1
# [25] = target: Fuc(a1-3)[Gal(b1-4)]GlcNAc(b1-3)Gal(b1-4)[Fuc(a1-3)]GlcNAc(b1-3)Gal(b1-4)[Fuc(a1-3)]GlcNAc
# Method in brief: as §1
# [26] = target: Fuc(a1-3)[Gal(b1-4)]GlcNAc(b1-3)GalNAc
# Method in brief: as §1
# [27] = target: Fuc(a1-3)[Gal(b1-4)]GlcNAc(b1-6)GalNAc
# Method in brief: as §1
# [28] = target: Fuc(a1-3)[Gal(b1-4)]GlcNAc(b1-6)[Gal(b1-3)GlcNAc(b1-3)]Gal(b1-4)Glc
# Method in brief: as §1
# [29] = target: Fuc(a1-3)[Gal(b1-4)]GlcNAc6S
# Method in brief: as §1
# [30] = target: Fuc(a1-3)[Gal3S(b1-4)]Glc
# Method in brief: as §1
# [31] = target: Fuc(a1-3)[Gal3S(b1-4)]GlcNAc
# Method in brief: as §1
# [32] = target: Fuc(a1-3)[Gal3S(b1-4)]GlcNAc6S
# Method in brief: as §1
# [33] = target: Fuc(a1-3)[GalNAc(b1-4)]GlcNAc
# Method in brief: as §1
# [34] = target: Fuc(a1-3)[GalNAc(b1-4)]GlcNAc6S
# Method in brief: as §1
# [35] = target: Fuc(a1-4)GlcNAc
# Method in brief: as §1
# [36] = target: Fuc(b1-3)GlcNAc
# Method in brief: as §1
# [37] = target: Gal(a1-2)Gal
# Method in brief: as §1
binder,measurement,setting,value
"SSP1 (Sclerotinia sclerotiorum), XP_001584968 (protein) MGSSHHHHHHSSGLVPRGSHMSLLTTELACTSAPDQVLHLFFQDGQNILEARSPDGGNVWTTQDTIIAKDGDYNGSSMTCYYVDKDANFDNQPSIHLLYMNKDKQLTEKVKRMKGDNPIWEDAKVPDEVRKGPEQYSKLTSGSFNQGTGWNPNGSQWAYFSASKDGKMGIVEIRRTPKDPWHTETILEEKWGDELPGTALACVIGNGKIRVFLQHHDYSIILYENQNNTWHDRGTFIPKDKVQATTPLACTMTKDGSVHLFYVSKSNKIIHCTDGKKEEELINFFPGSKLGATSVENKITLFFRNLNPVNEVGTLENENGSWKHGTTVIPA",glycan array binding signal (z-score),[1],-0.311
same,glycan array binding signal (z-score),[2],-0.402
same,glycan array binding signal (z-score),[3],-0.511
same,glycan array binding signal (z-score),[4],-0.335
same,glycan array binding signal (z-score),[5],-0.01
same,glycan array binding signal (z-score),[6],-0.163
same,glycan array binding signal (z-score),[7],-0.493
same,glycan array binding signal (z-score),[8],-0.225
same,glycan array binding signal (z-score),[9],0.298
same,glycan array binding signal (z-score),[10],-0.539
same,glycan array binding signal (z-score),[11],-0.083
same,glycan array binding signal (z-score),[12],-0.687
same,glycan array binding signal (z-score),[13],-0.096
same,glycan array binding signal (z-score),[14],-0.315
same,glycan array binding signal (z-score),[15],-0.335
same,glycan array binding signal (z-score),[16],-0.081
same,glycan array binding signal (z-score),[17],0.102
same,glycan array binding signal (z-score),[18],0.452
same,glycan array binding signal (z-score),[19],0.178
same,glycan array binding signal (z-score),[20],0.167
same,glycan array binding signal (z-score),[21],-0.003
same,glycan array binding signal (z-score),[22],-0.461
same,glycan array binding signal (z-score),[23],-0.517
same,glycan array binding signal (z-score),[24],-0.07
same,glycan array binding signal (z-score),[25],-0.083
same,glycan array binding signal (z-score),[26],0.264
same,glycan array binding signal (z-score),[27],-0.115
same,glycan array binding signal (z-score),[28],-0.067
same,glycan array binding signal (z-score),[29],0.517
same,glycan array binding signal (z-score),[30],0.066
same,glycan array binding signal (z-score),[31],0.719
same,glycan array binding signal (z-score),[32],-0.18
same,glycan array binding signal (z-score),[33],0.762
same,glycan array binding signal (z-score),[34],-0.12
same,glycan array binding signal (z-score),[35],0.034
same,glycan array binding signal (z-score),[36],-0.277
same,glycan array binding signal (z-score),[37],0.047
